The campaign covered roughly 39,000 compounds. About 220 (0.56%) showed activity. The list shows a part of the results.
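Also: static incubation at 37 °C against the wild-type strain, values averaged over two biological replicates.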

The subject of this assay is Escherichia coli K-12 BW25113. Nature of the assay: relative growth (OD600 normalised to plate interquartile mean) (fraction); higher = less growth inhibition, active = 0.2 or less. The conditions noted are these: 50 µM; LB; incubation time: overnight (16-24 h).
In the case of `CC(C)NC(=O)N(C)C[C@H]1Oc2ccc(NC(=O)CCN3CCOCC3)cc2C(=O)N([C@H](C)CO)C[C@H]1C`, the relative growth was inactive: 0.994.
Regarding `COc1ccc(NC(=O)N(C)C[C@H]2Oc3ccc(NS(C)(=O)=O)cc3CC(=O)N([C@H](C)CO)C[C@@H]2C)cc1`, the relative growth is inactive: 1.03.
As for `CCOC(=O)N(C)C[C@@H]1OCc2cn(nn2)CCCC(=O)N([C@H](C)CO)C[C@@H]1C`, the relative growth is inactive: 0.98.
`C[C@H](CO)N1C[C@H](C)[C@@H](CN(C)C(=O)Nc2ccc(F)cc2)Oc2ccc(NC(=O)CCCCCC(=O)Nc3ccccc3N)cc2CC1=O`: the relative growth is inactive: 1.
Regarding `O=C(N[C@@H]1CC[C@H](CCn2cc(C3(O)CCCC3)nn2)O[C@H]1CO)C1CCOCC1`, the relative growth is inactive: 0.964.
As for `C[C@@H]1CN([C@@H](C)CO)C(=O)c2cc(NS(=O)(=O)c3ccc(F)cc3)ccc2O[C@H]1CN(C)S(=O)(=O)c1cn(C)cn1`, the relative growth is inactive: 1.
Consider `C[C@@H]1CN([C@@H](C)CO)C(=O)Cc2cc(NC(=O)Nc3cccc4ccccc34)ccc2O[C@@H]1CN(C)Cc1ccc(C(F)(F)F)cc1`, for which the relative growth is inactive: 1.03.
Consider `C[C@H]1O[C@@H](O[C@H]2CC[C@@]3(C)[C@@H](CC[C@@]4(C)[C@@H]3CC=C3[C@H]5C[C@](C)(C(=O)O)CC[C@]5(C(=O)O[C@H]5O[C@@H](CO)[C@@H](O)[C@@H](O)[C@@H]5O)CC[C@@]34C)[C@@]2(C)CO)[C@@H](O)[C@@H](O[C@H]2O[C@@H](CO)[C@@H](O)[C@@H](O)[C@@H]2O)[C@@H]1O`, for which the relative growth was inactive: 1.01.
Take `C[C@H](CO)N1C[C@H](C)[C@@H](CN(C)C(=O)Nc2cccc3ccccc23)Oc2ccc(NC(=O)Nc3ccccc3)cc2CC1=O`: the relative growth is inactive: 0.993.
In the case of `C=CC[C@@H](CC(=O)N[C@H](CO)Cc1ccccc1)C(=O)N[C@@H](COC(=O)[C@@H](CC=C)NC(=O)OCC1c2ccccc2-c2ccccc21)Cc1c[nH]c2ccccc12`, the relative growth is inactive: 1.02.
For the compound `CN1C(=O)[C@H]2[C@H](C1=O)[C@H]1C=C(c3ccc(CO)cc3)[C@@H]2[C@H](c2cccs2)N1Cc1cccc(OC(F)(F)F)c1`, the relative growth was inactive: 1.04.
Under `CC(C)NC(=O)N(C)C[C@@H]1Oc2ccc(NC(=O)Nc3ccc4c(c3)OCO4)cc2CC(=O)N([C@H](C)CO)C[C@@H]1C` stands inactive: 1; under `CO[C@H]1CN(C)C(=O)c2cc(NC(=O)Nc3cccc(Cl)c3)ccc2OC[C@@H](C)N(C(=O)Nc2c(C)noc2C)C[C@@H]1C`, inactive: 0.983.
Turning to `COC(=O)[C@@H]1C(=O)NC[C@H]1c1ccccc1`, the relative growth is inactive: 0.997.
The figure for `C[C@H]1CN([C@@H](C)CO)C(=O)Cc2cc(NS(C)(=O)=O)ccc2O[C@H]1CN(C)S(=O)(=O)c1cn(C)cn1` is inactive: 1.02; for `CCCNC(=O)C[C@H]1CC[C@@H]2[C@@H](COc3ccc(NC(=O)c4ccc5c(c4)OCO5)cc3C(=O)N2C)O1` it is inactive: 0.972.
`C[C@@H]1CN([C@H](C)CO)C(=O)c2cccc(NC(=O)c3ccc(-c4nccs4)cc3)c2O[C@@H]1CN(C)CC1CCCCC1`: the relative growth was inactive: 1.03.
Regarding `C[C@H](CO)N1C[C@H](C)[C@@H](CN(C)Cc2ccccc2)Oc2ccc(NC(=O)Cn3cnnn3)cc2C1=O`, the relative growth was inactive: 0.94.
For the compound `O=C(C[C@@H]1C=C[C@@H](NC(=O)CN2CCOCC2)[C@@H](CO)O1)NCc1cccc(F)c1`, the relative growth was inactive: 1.05.
Consider `Cc1ccc(S(=O)(=O)Nc2cccc3c2O[C@@H](CN(C)C(=O)Nc2ccc(C(F)(F)F)cc2)[C@H](C)CN([C@H](C)CO)C3=O)cc1`, for which the relative growth is inactive: 0.992.
On to `COc1ccc(CN(C)C[C@H]2OCCCC[C@@H](C)Oc3ccc(NC(=O)Nc4c(C)noc4C)cc3C(=O)N([C@@H](C)CO)C[C@@H]2C)cc1`, for which the relative growth was inactive: 0.993.
`COc1ccc2c3c(n(c2c1)C)[C@H](CO)N(CC1CCOCC1)C[C@]13CN(C1)C(=O)c1cccc(c1)F`: the relative growth was inactive: 1.02.
Under `CC(=O)OC(C)C[N+](C)(C)C.[Cl-]` (stereo unspecified) stands inactive: 0.98.
As to `COc1cccc(S(=O)(=O)N2C[C@@H](O)COC[C@H]3O[C@@H](CC(=O)N4CCN(c5ccccc5)CC4)CC[C@@H]32)c1`, the relative growth is inactive: 0.995.
Turning to `COc1ccc(NC(=O)N(C)C[C@@H]2Oc3c(NC(=O)c4cc(C)nn4C)cccc3C(=O)N([C@H](C)CO)C[C@H]2C)cc1`, the relative growth was inactive: 0.995.
As for `COc1ccc(NC(=O)N(C)C[C@H]2Oc3ccc(NC(=O)CCN4CCOCC4)cc3C(=O)N([C@@H](C)CO)C[C@H]2C)cc1`, the relative growth was inactive: 0.952.
For the compound `Cc1noc(C)c1NC(=O)N(C)C[C@@H]1OCCCC[C@@H](C)Oc2ccc(NS(=O)(=O)c3ccccc3)cc2C(=O)N([C@@H](C)CO)C[C@H]1C`, the relative growth is inactive: 0.999.
As for `O=C(Cn1cc(COc2ccc(Cl)c(Cl)c2)nn1)NS(=O)(=O)c1cccc(OC(F)F)c1`, the relative growth is inactive: 0.989.
On to `C[C@@H]1CCCCO[C@@H](CN(C)Cc2ccc3c(c2)OCO3)[C@@H](C)CN([C@@H](C)CO)C(=O)c2cc(NC(=O)Nc3cccc4ccccc34)ccc2O1`, for which the relative growth was inactive: 0.993.
The figure for `O=C(CCCCCCC(=O)Nc1ccccc1O)N/N=C/[C@H](O)[C@@H](O)[C@H](O)CO` is inactive: 0.999; for `COc1ccc(CN(C)C[C@H]2OCCCC[C@@H](C)Oc3ccc(NC(=O)Nc4c(C)noc4C)cc3C(=O)N([C@@H](C)CO)C[C@H]2C)cc1` it is inactive: 1.
Consider `COc1ccc(C#Cc2ccc3c(c2)[C@]2(C(=O)N3)[C@H](c3ccccc3OCCO)N3[C@H](c4ccccc4)[C@H](c4ccccc4)OC(=O)[C@H]3[C@@H]2C(=O)N2CCN(c3ncccn3)CC2)cc1`, for which the relative growth is inactive: 1.1.
For `CC1(C)[C@H]2CC[C@@]1(C(=O)O)C(=O)C2=O`, the relative growth is inactive: 0.99.
Take `Cc1noc(C)c1NC(=O)Nc1ccc2c(c1)C(=O)N([C@H](C)CO)C[C@H](C)[C@@H](CN(C)C(=O)Nc1ccccc1)OCCCC[C@@H](C)O2`: the relative growth is inactive: 1.01.
As to `O=C(NO)c1ccc(-c2cn(CC[C@@H]3OC(=O)[C@H](Cc4ccccc4)N4CC5=CC(=O)[C@H](C6CC6)[C@H]5[C@H]34)nn2)cc1`, the relative growth is inactive: 0.991.
Consider `C[C@@H]1CN([C@@H](C)CO)C(=O)CCCn2cc(nn2)CO[C@@H]1CN(C)S(=O)(=O)c1ccc(Cl)cc1`, for which the relative growth is inactive: 1.01.
Consider `COc1ccc(NC(=O)N(C)C[C@@H]2OCCCC[C@H](C)Oc3ccc(NC(=O)C4CCCCC4)cc3C(=O)N([C@H](C)CO)C[C@H]2C)cc1`, for which the relative growth is inactive: 0.952.
For `Cc1ccc(S(=O)(=O)N(C)C[C@@H]2OCCCC[C@H](C)Oc3ccc(NC(=O)c4ccccc4)cc3C(=O)N([C@H](C)CO)C[C@H]2C)cc1`, the relative growth is inactive: 0.952.
Under `Cc1noc(C)c1NC(=O)Nc1ccc2c(c1)C(=O)N([C@@H](C)CO)C[C@H](C)[C@@H](CN(C)C(=O)Nc1ccc3c(c1)OCO3)OCCCC[C@H](C)O2` stands inactive: 0.997.
Under `Cc1noc(C)c1S(=O)(=O)Nc1ccc2c(c1)C(=O)N([C@H](C)CO)C[C@H](C)[C@H](CN(C)S(=O)(=O)c1cccs1)O2` stands inactive: 1; under `Cc1cn2c3c(=O)n(C)c(=O)n(C)c3nc2n1CCN1CCOCC1`, inactive: 1.01.
The figure for `CNC(=O)Cn1cc2c(n1)CC[C@H](C)C2` is inactive: 0.976.
`CNC(=O)[C@H]1O[C@H](n2cnc3c(NCc4cccc(I)c4)ncnc32)[C@@H](O)[C@@H]1O`: the relative growth was inactive: 1.02.
The figure for `C[C@@H]1CN([C@@H](C)CO)C(=O)c2cc(NC(=O)Nc3ccc(F)cc3)ccc2O[C@@H](C)CCCCO[C@H]1CN(C)CC1CCCCC1` is inactive: 0.974; for `C[C@@H]1CN([C@H](C)CO)C(=O)c2cc(NC(=O)Cc3ccccc3)ccc2O[C@H]1CN(C)S(C)(=O)=O` it is inactive: 0.991.
Under `CCCCCN1CC=C[C@@]23O[C@@H]4C=CCOC(=O)[C@@H]4[C@H]2C(=O)N(CCO)[C@@H]3C1=O` stands inactive: 1.05.
Regarding `CC(C)C[C@H]1NC(=O)[C@@H](C)NC(=O)[C@@]23C(=O)N[C@@H](Cc4ccccc4)[C@H]2[C@H](C)[C@@]2(C)O[C@H]2[C@@H]3/C=C/C/C=C\CNC1=O`, the relative growth is inactive: 1.05.
For `COc1ccc(S(=O)(=O)Nc2ccc3c(c2)C(=O)N([C@H](C)CO)C[C@@H](C)[C@@H](CN(C)S(=O)(=O)c2ccc(Cl)cc2)OCCCC[C@H](C)O3)cc1`, the relative growth was inactive: 1.02.
For the compound `C[C@@H]1CN([C@H](C)CO)C(=O)c2cc(NS(=O)(=O)c3cn(C)cn3)ccc2O[C@H]1CN(C)Cc1ccc(C(=O)Nc2ccccc2N)cc1`, the relative growth is inactive: 1.01.
For the compound `C[C@H](CO)N1C[C@H](C)[C@H](CN(C)C(=O)Nc2ccc(C(F)(F)F)cc2)Oc2ncc(C3=CCCC3)cc2C1=O`, the relative growth is inactive: 0.965.
Regarding `C[C@@H]1CN([C@@H](C)CO)C(=O)c2cc(NS(=O)(=O)c3cn(C)cn3)ccc2O[C@@H]1CN(C)C(=O)Nc1ccc2c(c1)OCO2`, the relative growth is inactive: 0.987.
As to `O=C(C[C@H]1CC[C@H]2[C@@H](COC[C@H](O)CN2S(=O)(=O)c2cccc(Cl)c2)O1)NCCCN1CCOCC1`, the relative growth is inactive: 0.976.
For the compound `C[C@H]1CN([C@@H](C)CO)C(=O)c2cc(NS(=O)(=O)c3cccs3)ccc2O[C@@H]1CN(C)Cc1ccncc1`, the relative growth is inactive: 0.977.
The figure for `O=C(C[C@@H]1CC[C@H]2[C@@H](COC[C@@H](O)CN2C(=O)Nc2ccc(Cl)c(Cl)c2)O1)NCc1ccc(Cl)c(Cl)c1` is inactive: 0.899; for `C[C@@H]1CCCCO[C@H](CN(C)S(=O)(=O)c2ccccc2)[C@@H](C)CN([C@@H](C)CO)C(=O)c2cc(NC(=O)C3CCCCC3)ccc2O1` it is inactive: 0.995; for `C[C@@H]1CN([C@@H](C)CO)C(=O)Cc2cc(NS(=O)(=O)c3cccs3)ccc2O[C@H]1CN(C)S(=O)(=O)c1cccs1` it is inactive: 1.01.
